# Measurements as given in the supplement of paper PMC12217912.
# This is one part of the list. The full chains were built here from the parent and the listed change. Inactive controls read about 0.05.
# B1: TEV protease; numbered along this chain (parent)
# chain: MGESLFKGPRDYNPISSSICHLTNESDGHTTSLYGIGFGPFIITNKHLFRRNNGTLVVQSLHGVFKVKDTTTLQQHLVDGRDMIIIRMPKDFPPFPQKLKFREPQREERICLVTTNFQTKSMSSMVSDTSCTFPSGDGIFWKHWIQTKDGQCGSPLVSTRDGFIVGIHSASNFTNTNNYFTSVPKNFMELLTNQEAQQWVSGWRLNADSVLWGGHKVFMVKPEEPFQPVKEATQL
# Variants of: B1
# Assay: raw area under fraction-flipped curve 0-4 h after induction (AUC4h, not background-subtracted), DNA-recorder readout of cleavage of the substrate (dimensionless); higher = more cleavage of the substrate by the protease variant
# Conditions: temperature: 34 °C; time window: 0-4 h after rhamnose induction
# Experimental: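 In vivo DNA recorder in E. coli TOP10(DE3) ΔrhaA at 34 °C. Each TEVp single-site mutant (parent TEVp 0) is paired with a single-site variant of the 7-mer TEVs (canonical ENLYFQ|S). The substrate sits between flexible linkers in a Bxb1-sfGFP-TEVs-SsrA fusion, so cleavage stabilises Bxb1 and speeds flipping of a recombination array, read by NGS. The value is the raw area under the fraction-flipped curve over 0-4 h after rhamnose induction (AUC4h), with ≥20 reads per time point. It is not background-subtracted; inactive controls average about 0.047.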
# 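Also: Bxb1 expression induced with 0.2% (w/v) L-rhamnose at OD600 near 0.5, cultures sampled hourly, flipped fraction per protease–substrate barcode pair counted by paired-end Illumina sequencing.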
Variant,area with substrate ENLAFQS,area with substrate ENLDFQS,area with substrate ENLEFQS,area with substrate ENLFFQS,area with substrate ENLHFQS,area with substrate ENLIFQS,area with substrate ENLKFQS,area with substrate ENLLFQS,area with substrate ENLNFQS,area with substrate ENLPFQS,area with substrate ENLQFQS,area with substrate ENLRFQS,area with substrate ENLSFQS,area with substrate ENLTFQS,area with substrate ENLVFQS,area with substrate ENLWFQS,area with substrate ENLCFQS,area with substrate ENLMFQS,area with substrate ENLGFQS
E108D,0.0728,0.066,0.0575,0.0863,0.0647,0.0935,0.0776,0.0784,0.0593,0.0676,0.0682,0.0795,0.0664,0.0665,0.0969,0.0554,–,–,–
I110S,0.0382,0.0523,–,0.0603,0.0551,0.0691,–,0.0677,0.0499,0.0555,–,0.0406,0.0612,–,–,0.0477,0.0627,0.0541,–
C111W,0.0514,0.1,0.0614,–,0.0639,–,–,–,0.0497,0.0517,–,0.0771,0.0563,–,–,0.0705,0.0588,0.0523,–
L112E,0.0439,0.0419,0.0694,0.0717,0.0601,0.048,0.0683,–,0.07,0.0516,0.0593,0.0612,–,–,0.063,–,0.0657,–,–
V113Q,0.0571,0.0686,0.078,0.0707,0.0536,0.0782,0.0598,–,0.0713,0.0444,–,0.0603,–,–,–,–,–,–,–
T114W,0.0382,0.0624,0.0594,0.0728,0.0552,–,0.0835,–,0.0616,0.0657,–,0.0831,0.0642,–,0.0264,–,0.0756,–,0.057
T115E,0.0696,0.069,0.0611,0.107,0.0599,0.104,0.0517,–,0.0509,0.0521,–,0.117,–,0.0818,–,0.063,–,0.0652,–
S121G,0.0506,0.0491,0.0472,0.0915,0.0956,0.0719,0.0811,0.0687,0.0571,–,–,–,–,0.0415,–,0.054,0.0715,–,–
S121P,0.0985,0.0696,0.068,0.0828,–,–,0.0903,–,0.0692,0.0581,0.0619,–,0.071,–,0.0688,–,0.0756,0.0719,0.0647
M122N,0.0609,0.059,0.0733,0.0878,0.0677,–,0.0767,0.06,0.051,0.0552,–,0.0736,–,–,–,–,0.0484,–,–
S123E,0.0589,0.0773,0.0475,0.0813,0.0679,0.0871,0.0796,0.0545,0.0619,–,0.0599,0.0839,0.0601,0.0715,0.0737,0.0692,–,0.0793,–
S124A,0.0642,0.0604,–,0.0884,–,–,0.0886,–,0.0561,0.0679,–,0.0656,0.0591,–,0.0793,0.0542,–,–,0.0664
S124T,0.058,0.0609,–,0.0785,–,0.097,0.079,0.0512,0.0545,–,0.066,–,–,–,0.0801,0.105,0.085,0.0802,–
D128V,0.0825,0.0539,0.0687,0.152,–,–,0.119,0.082,0.0605,0.0628,–,0.103,0.0631,0.0674,–,–,–,0.109,–
T129V,0.0694,–,0.0715,0.0758,0.0749,0.07,0.0739,–,0.0668,0.0697,–,0.0723,0.0634,–,–,–,0.0724,–,–
S130I,0.0704,–,0.0613,0.0746,0.084,–,0.0829,–,–,–,–,–,0.0765,–,0.0842,–,–,0.0628,–
S130P,0.0416,0.0462,0.0268,0.0502,0.0416,0.0388,0.0368,0.0423,–,0.0539,0.0494,0.0425,0.0478,–,0.0625,0.05,0.0389,–,–
C131D,0.0651,0.0588,0.0597,0.0807,–,–,–,–,–,–,–,–,0.0682,–,–,0.0666,–,–,0.0611
F133C,0.0547,0.0626,0.0652,–,0.0719,–,0.0724,0.0905,0.0524,–,0.0853,–,0.0636,0.0643,–,–,–,–,–
F133V,0.0725,0.0519,–,0.0822,0.0623,–,0.0813,–,0.0675,0.0595,0.0609,–,0.0688,–,–,0.0605,–,0.0788,0.0717
S135G,0.0633,0.062,0.0687,0.0804,0.0619,0.066,–,–,0.0722,0.0693,–,0.0658,0.041,–,–,–,0.0621,0.0732,–
S135V,0.0601,0.0649,0.0602,0.0692,0.0363,0.071,0.0649,0.0492,0.0579,0.0485,0.0656,0.0762,0.0839,0.059,–,–,0.0667,0.0577,0.0661
G136Y,0.0691,0.0641,0.0838,0.0616,–,–,–,0.0777,0.0569,0.0492,0.0328,0.0608,–,–,–,0.0612,0.0769,0.0816,–
G138V,0.0543,0.0674,0.0564,0.0715,–,0.0615,0.0604,–,0.0392,0.0518,–,–,–,–,–,0.0492,0.0727,–,–
I139P,0.0549,–,0.083,–,0.0473,0.0787,–,0.0729,0.0554,0.0617,–,–,–,–,–,–,–,0.0729,–
I139W,0.0715,0.0708,0.0656,0.0903,–,0.0887,0.0671,–,0.0593,0.0698,0.0627,0.0876,0.058,–,–,0.0724,0.0682,0.0508,–
K142P,0.0515,0.0658,0.0594,0.066,0.0552,0.0511,0.0716,–,0.0622,0.0546,0.0644,–,0.0695,–,–,0.046,0.052,0.0603,0.0692
K142R,0.0723,0.0549,0.0768,0.0755,–,–,0.0815,–,0.0914,–,–,0.0681,0.0392,–,–,0.0541,–,–,–
H143D,0.035,0.0702,0.0372,–,0.0523,–,–,–,0.0586,0.0731,0.0551,0.0733,0.0603,–,–,–,0.0799,–,0.066
